ChEMBL document CHEMBL5050857, “Mettl3 modulators” (2021)

Tests used:
[1] = target: N6-adenosine-methyltransferase catalytic subunit (Homo sapiens, UniProt Q86U44); assay: Inhibition of METTL3 (unknown origin) using UCUGGACUAAA-biotin and 3H-SAM as substrates preincubated for 5 mins followed by substrate addition incubated for 30 mins by TopCount scintillation counting method
MOLM-13 [2] = assay: Antiproliferative activity against human MOLM-13 cells after 96 hrs by Cell Titer-Glo assay; type: functional, cell-based; conditions: MOLM-13, 96 h
MOLM-13 [3] = assay: Antiproliferative activity against human MOLM-13 cells after 48 hrs by Cell Titer-Glo assay; type: functional, cell-based; conditions: MOLM-13, 48 h

UniProt Q86U44, sequence (Q86U44 whole entry): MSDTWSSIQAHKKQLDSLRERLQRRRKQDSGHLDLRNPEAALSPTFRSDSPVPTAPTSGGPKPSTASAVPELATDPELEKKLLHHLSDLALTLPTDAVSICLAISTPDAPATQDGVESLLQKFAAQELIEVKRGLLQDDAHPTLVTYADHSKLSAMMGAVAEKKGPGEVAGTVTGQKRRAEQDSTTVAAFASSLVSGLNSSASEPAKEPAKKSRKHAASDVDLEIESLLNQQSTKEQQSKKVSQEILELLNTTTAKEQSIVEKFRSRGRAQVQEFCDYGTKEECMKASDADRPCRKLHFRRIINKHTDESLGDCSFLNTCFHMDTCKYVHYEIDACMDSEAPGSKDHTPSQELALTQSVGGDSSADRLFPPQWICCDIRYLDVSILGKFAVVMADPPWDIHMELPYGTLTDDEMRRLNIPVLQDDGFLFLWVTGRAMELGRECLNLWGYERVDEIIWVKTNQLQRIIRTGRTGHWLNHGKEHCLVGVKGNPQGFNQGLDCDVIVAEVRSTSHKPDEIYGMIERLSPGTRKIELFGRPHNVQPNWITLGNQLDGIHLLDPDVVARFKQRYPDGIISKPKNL

| IC50 [1] [nM] | Compound | IC50 (MOLM-13 [2]) [nM] | IC50 (MOLM-13 [3]) [nM] |
| --- | --- | --- | --- |
| < 10 | Nc1ncnc2c1c(CO)cn2[C@@H]1O[C@H](COc2ccc3ccc(N4CCC4)nc3c2)[C@@H](O)[C@@H]1F | 1000 | 1000 |
| < 10 | CNc1ccc2ccc(CC[C@H]3C[C@@H](n4ccc5c(N)ncnc54)[C@H](O)[C@@H]3O)cc2n1 | < 1000 | ≥ 10000 |
| < 10 | CCc1cc(N(C)CC2CC2)c2ccc(OC[C@H]3O[C@@H](n4cc(-c5ccn(C)n5)c5c(N)ncnc54)C[C@@H]3O)cc2n1 | 1000 | 1000 |
| < 10 | CNc1ccc2ccc(OC[C@H]3O[C@@H](n4cc(-c5ccn(C6CCC6)n5)c5c(N)ncnc54)[C@H](O)[C@@H]3O)cc2n1 | – | 1000 |
| – | Nc1ncnc2c1ccn2[C@H]1C[C@H](O)[C@@H](COc2ccc3ccc(NC4CC4)nc3c2)O1 | ≥ 10000 | ≥ 10000 |
| < 10 | C=CCc1cn([C@@H]2O[C@H](COc3ccc4ccc(NC)nc4c3)[C@@H](O)[C@H]2O)c2ncnc(N)c12 | – | < 1000 |
| < 10 | Cn1ccc(-c2cn([C@@H]3O[C@H](COc4ccc5ccc(C6CCC6)nc5c4)[C@@H](O)[C@@H]3F)c3ncnc(N)c23)n1 | 1000 | 1000 |
| ≤ 1000 | CNc1ccc2cc(CC[C@H]3C[C@@H](n4ccc5c(N)ncnc54)[C@H](O)[C@@H]3O)ccc2n1 | 1000 | – |
| – | Nc1ncnc2c1ccn2[C@@H]1C[C@H](CCc2ccc3nccnc3c2)[C@@H](O)[C@H]1O | < 1000 | – |
| – | Nc1ncnc2c1c([C@@H]1CCCO1)cn2[C@@H]1O[C@H](COc2ccc3ccc(N4CCC4)nc3c2)[C@@H](O)[C@@H]1F | < 1000 | 1000 |
| – | Nc1ncnc2c1c(-n1cccn1)cn2[C@@H]1O[C@H](COc2ccc3ccc(N4CCC4)nc3c2)[C@@H](O)[C@@H]1F | < 1000 | < 1000 |
| ≤ 1000 | Nc1ccc2cc(CC[C@H]3C[C@@H](n4ccc5c(N)ncnc54)[C@H](O)[C@@H]3O)ccc2n1 | 1000 | – |
| – | CNc1ccc2ccc(OC[C@H]3O[C@@H](n4cc(-c5ccc(C)o5)c5c(N)ncnc54)[C@@H](F)[C@@H]3O)cc2n1 | < 1000 | < 1000 |
| < 10 | CNc1ccc2ccc(OC[C@H]3O[C@@H](n4cc(F)c5c(N)ncnc54)[C@@H](F)[C@@H]3O)cc2n1 | – | 1000 |
| < 10 | Nc1ncnc2c1c(C1CCCC1)cn2[C@@H]1O[C@H](COc2ccc3ccc(N4CCC4)nc3c2)[C@@H](O)[C@@H]1F | 1000 | – |
| < 10 | CNc1ccc2ccc(OC[C@H]3O[C@@H](n4cc(C(O)C5CC5)c5c(N)ncnc54)[C@H](O)[C@@H]3O)cc2n1 (stereo not given in full) | – | ≥ 10000 |
| – | Cc1coc(-c2cn([C@@H]3O[C@H](COc4ccc5ccc(N6CCC6)nc5c4)[C@@H](O)[C@@H]3F)c3ncnc(N)c23)n1 | < 1000 | 1000 |
| < 10 | Cn1ccc(-c2cn([C@@H]3O[C@H](CCc4ccc5cnc(N6CCC6)nc5c4)[C@@H](O)[C@@H]3F)c3ncnc(N)c23)n1 | 1000 | – |
| < 10 | CNc1ccc2ccc(OC[C@H]3O[C@@H](n4cc(CC5CC5)c5c(N)ncnc54)[C@H](O)[C@@H]3O)cc2n1 | – | 1000 |
| ≤ 1000 | Nc1ncnc2c1ccn2[C@@H]1C[C@H](CCc2ccc3ccc(NCCO)nc3c2)[C@@H](O)[C@H]1O | – | – |
| ≤ 100 | Nc1ccc2ccc(CC[C@H]3C[C@@H](n4cc(Br)c5c(N)ncnc54)[C@H](O)[C@@H]3O)cc2n1 | – | – |
| < 10 | Cn1ccc(-c2cn([C@@H]3O[C@H](COc4ccc5cnc(NC6C7CC6C7)nc5c4)[C@@H](O)[C@@H]3F)c3ncnc(N)c23)n1 (stereo not given in full) | – | – |
| – | COCCN(C)C(=O)c1cn([C@@H]2O[C@H](COc3ccc4ccc(N5CCC5)nc4c3)[C@@H](O)[C@@H]2F)c2ncnc(N)c12 | ≥ 10000 | – |
| ≥ 1000 | Nc1ncnc2c1ccn2[C@@H]1C[C@H](CCc2ccc3cc[nH]c3c2)[C@@H](O)[C@H]1O | – | – |
| ≤ 1000 | Nc1ncnc2c1ccn2[C@@H]1C[C@H](CCc2ccc3ccc(NCc4ccccc4)nc3c2)[C@@H](O)[C@H]1O | – | – |
| ≤ 1000 | CNc1ccc2cc(CC[C@H]3C[C@@H](n4cc(C)c5c(N)ncnc54)[C@H](O)[C@@H]3O)ccc2n1 | – | – |
| ≥ 1000 | Nc1ncnc2c1ccn2[C@@H]1C[C@H](CCc2ccc3[nH]ccc3c2)[C@@H](O)[C@H]1O | – | – |
| < 10 | CNc1ccc2ccc(OC[C@H]3O[C@@H](n4cc(C5CCC(F)(F)CC5)c5c(N)ncnc54)[C@H](O)[C@@H]3O)cc2n1 | – | – |

| Compound | IC50 [1] [nM] | IC50 (MOLM-13 [2]) [nM] | IC50 (MOLM-13 [3]) [nM] |
| --- | --- | --- | --- |
| Nc1ncnc2c1c(-c1ncco1)cn2[C@@H]1O[C@H](COc2ccc3ccc(N4CCC4)nc3c2)[C@@H](O)[C@@H]1F | < 10 | < 1000 | – |
| CNc1ccc2ccc(OC[C@H]3O[C@@H](n4cc(-c5ccn(C6COC6)n5)c5c(N)ncnc54)[C@@H](F)[C@@H]3O)cc2n1 | < 10 | – | 1000 |
| CNc1ccc2ccc(OC[C@H]3O[C@@H](n4cc(-c5ccn(C(C)C)n5)c5c(N)ncnc54)[C@@H](F)[C@@H]3O)cc2n1 | < 10 | < 1000 | – |
| CCNc1ccc2ccc(OC[C@H]3O[C@@H](n4cc(-c5ccn(C)n5)c5c(N)ncnc54)[C@@H](F)[C@@H]3O)cc2n1 | < 10 | < 1000 | – |
| CNc1ccc2ccc(OC[C@H]3O[C@@H](n4cc(-c5ccc(C)cn5)c5c(N)ncnc54)[C@@H](F)[C@@H]3O)cc2n1 | < 10 | – | < 1000 |
| Nc1ncnc2c1c(-n1ccc(C(F)(F)F)n1)cn2[C@H]1C[C@H](O)[C@@H](COc2ccc3ccc(N4CCC4)nc3c2)O1 | < 10 | 1000 | 1000 |
| Cn1ccc(-c2cn([C@H]3C[C@H](O)[C@@H](COc4ccc5ccc(N6CCC6)nc5c4)O3)c3ncnc(N)c23)n1 | < 10 | < 1000 | 1000 |
| CCc1cc(N(C)CC2CC2)c2ccc(OC[C@H]3O[C@@H](n4cc(-c5ccn(C)n5)c5c(N)ncnc54)[C@@H](F)[C@@H]3O)cc2n1 | < 10 | < 1000 | 1000 |
| Nc1ncnc2c1c(-n1ccc(C(F)(F)F)n1)cn2[C@@H]1O[C@H](COc2ccc3ccc(N4CCC4)nc3c2)[C@@H](O)[C@@H]1F | < 10 | 1000 | 1000 |
| Cn1ccc(-c2cn([C@@H]3O[C@H](COc4ccc5ccc(NC6CCC6)nc5c4)[C@@H](O)[C@@H]3F)c3ncnc(N)c23)n1 | < 10 | < 1000 | < 1000 |
| Cn1ccc(-c2cn([C@@H]3C[C@H](CCc4ccc5ccc(N6CCC6)nc5c4)[C@@H](O)[C@@H]3F)c3ncnc(N)c23)n1 | < 10 | < 1000 | – |
| CNc1ccc2sc(CC[C@H]3O[C@@H](n4cc(-c5ccn(C)n5)c5c(N)ncnc54)[C@@H](F)[C@@H]3O)cc2n1 | < 10 | < 1000 | – |
| CCn1ccc(-c2cn([C@@H]3O[C@H](COc4ccc5ccc(NC)nc5c4)[C@@H](O)[C@@H]3F)c3ncnc(N)c23)n1 | < 10 | < 1000 | – |
| CNc1ccc2ccc(OC[C@H]3O[C@@H](n4cc(-c5cccc(C)n5)c5c(N)ncnc54)[C@@H](F)[C@@H]3O)cc2n1 | < 10 | – | 1000 |
| Cn1cc(-c2cn([C@@H]3C[C@H](CCc4ccc5ccc(N)nc5c4)[C@@H](O)[C@H]3O)c3ncnc(N)c23)cn1 | ≤ 1000 | – | – |
| Nc1ncnc2c1c(-n1cccn1)cn2[C@@H]1C[C@H](CCc2cc3nc(N4CCC4)ccc3cc2F)[C@@H](O)C1 | < 10 | – | – |
